Reference: publication PMC11844742, “Structural basis of aquaporin-4 autoantibody binding in neuromyelitis optica” (Science Advances, 2025)

Biological target: the molecule itself
Assay: cryo-EM structure; AQP4 M1 alone in MSP1E3D1 nanodiscs, 0.3 uM; C4 symmetry imposed; 2.1 A

B1: human aquaporin-4 (AQP4) isoform M1, full length, tetramer in MSP1E3D1 lipid nanodiscs (natural protein)
chain: not shown
notes: aquaporin-4, human, isoform M1, full length ([…]); synthesized gene in pPICZ; a thrombin cleavage site lies between the tags and the protein; Homo-tetramer embedded in a nanodisc (soybean polar lipids, MSP1E3D1); for BLI the MSP 1E3D1 was biotinylated; also called AQP4 M1; M1 tetramer; not shown: 8xHis, N-terminal, kept
- stoichiometry N: 4
